Test results from the supplement of paper PMC8728848.
This is one part of the list.

Assays:
Test in all cases: glycan array binding signal (z-score within array); higher = stronger binding
Conditions in all cases: glycan notation: IUPAC condensed, linker removed
Gal6S(b1-4)Glc6S = target: Gal6S(b1-4)Glc6S
In short: (§1)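 Glycan array binding is given as a within-array Z-score, which can be read as non-binding when negative. The arrays, 3228 of them, came from the Consortium for Functional Glycomics database and were retained only where the protein sequence was available. Z-scores were averaged across arrays of the same protein sequence at different concentrations or buffers and across linkers.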

Gal6S(b1-4)GlcNAc = target: Gal6S(b1-4)GlcNAc
In short: as §1

Gal6S(b1-4)GlcNAc6S = target: Gal6S(b1-4)GlcNAc6S
In short: as §1

GalNAc(a1-3)Gal = target: GalNAc(a1-3)Gal
In short: as §1

GalNAc(a1-3)GalNAc = target: GalNAc(a1-3)GalNAc
In short: as §1

[1] = target: GalNAc(a1-3)GalNAc(a1-3)Gal(a1-4)Gal(b1-4)GlcNAc
In short: as §1

[2] = target: GalNAc(a1-3)GalNAc(b1-3)Gal(a1-4)Gal(b1-4)Glc
In short: as §1

[3] = target: GalNAc(a1-3)GalNAc(b1-3)Gal(a1-4)Gal(b1-4)GlcNAc
In short: as §1

GalNAc(b1-3)Gal = target: GalNAc(b1-3)Gal
In short: as §1

[4] = target: GalNAc(b1-3)Gal(a1-4)Gal(b1-4)GlcNAc
In short: as §1

[5] = target: GalNAc(b1-3)Gal(a1-4)Gal(b1-4)GlcNAc(b1-3)Gal(b1-4)Glc
In short: as §1

[6] = target: GalNAc(b1-3)Gal(a1-6)Gal(b1-4)Glc
In short: as §1

GalNAc(b1-3)GalNAc = target: GalNAc(b1-3)GalNAc
In short: as §1

GalNAc(b1-3)GlcNAc = target: GalNAc(b1-3)GlcNAc
In short: as §1

GalNAc(b1-4)Gal(b1-4)Glc = target: GalNAc(b1-4)Gal(b1-4)Glc
In short: as §1

GalNAc(b1-4)GlcNAc = target: GalNAc(b1-4)GlcNAc
In short: as §1

[7] = target: GalNAc(b1-4)GlcNAc(b1-2)Man
In short: as §1

[8] = target: GalNAc(b1-4)GlcNAc(b1-2)Man(a1-3)[GalNAc(b1-4)GlcNAc(b1-2)Man(a1-6)]Man(b1-4)GlcNAc(b1-4)GlcNAc
In short: as §1

[9] = target: GalNAc(b1-4)GlcNAc(b1-3)GalNAc(b1-4)GlcNAc
In short: as §1

GalNAc(b1-4)GlcNAc6S = target: GalNAc(b1-4)GlcNAc6S
In short: as §1

GalNAc(b1-6)GalNAc = target: GalNAc(b1-6)GalNAc
In short: as §1

GalNAc3S(b1-4)GlcNAc = target: GalNAc3S(b1-4)GlcNAc
In short: as §1

GalNAc3S(b1-4)GlcNAc3S = target: GalNAc3S(b1-4)GlcNAc3S
In short: as §1

[10] = target: GalNAc3S(b1-4)[Fuc(a1-3)]GlcNAc
In short: as §1

GalNAc4S6S(b1-4)GlcNAc = target: GalNAc4S6S(b1-4)GlcNAc
In short: as §1

GalNAc6S(b1-4)GlcNAc = target: GalNAc6S(b1-4)GlcNAc
In short: as §1

Glc(a1-4)Glc = target: Glc(a1-4)Glc
In short: as §1

[11] = target: Glc(a1-4)Glc(a1-4)Glc(a1-4)Glc
In short: as §1

Glc(a1-6)Glc(a1-6)Glc = target: Glc(a1-6)Glc(a1-6)Glc
In short: as §1

[12] = target: Glc(a1-6)Glc(a1-6)Glc(a1-6)Glc
In short: as §1

Glc(b1-4)Glc = target: Glc(b1-4)Glc
In short: as §1

Glc(b1-6)Glc = target: Glc(b1-6)Glc
In short: as §1

GlcA(b1-3)Gal = target: GlcA(b1-3)Gal
In short: as §1

GlcA(b1-3)GlcNAc = target: GlcA(b1-3)GlcNAc
In short: as §1

GlcA(b1-6)Gal = target: GlcA(b1-6)Gal
In short: as §1

[13] = target: GlcA3S(b1-3)Gal(b1-4)GlcNAc(b1-2)Man
In short: as §1

[14] = target: GlcA3S(b1-3)Gal(b1-4)GlcNAc(b1-3)Gal(b1-4)Glc
In short: as §1

[15] = target: GlcNAc(a1-3)Gal(b1-4)GlcNAc
In short: as §1

[16] = target: GlcNAc(a1-4)Gal(b1-3)GlcNAc
In short: as §1

[17] = target: GlcNAc(a1-4)Gal(b1-4)GalNAc
In short: as §1

[18] = target: GlcNAc(a1-4)Gal(b1-4)GlcNAc
In short: as §1

[19] = target: GlcNAc(a1-4)Gal(b1-4)GlcNAc(b1-3)Gal(b1-4)Glc
In short: as §1

[20] = target: GlcNAc(a1-4)Gal(b1-4)GlcNAc(b1-3)Gal(b1-4)GlcNAc
In short: as §1

[21] = target: GlcNAc(a1-4)Gal(b1-4)GlcNAc(b1-3)Gal(b1-4)GlcNAc(b1-3)Gal(b1-4)GlcNAc
In short: as §1

[22] = target: GlcNAc(a1-4)Gal(b1-4)GlcNAc(b1-3)Gal(b1-4)[Fuc(a1-3)]GlcNAc(b1-3)Gal(b1-4)[Fuc(a1-3)]GlcNAc
In short: as §1

B1: NKR-PIC (Mus musculus) (protein)
chain: GTGQKPSREKCCVFIQENLNKTTDCSVNLECPQDWLLHRDKCFHVSQVSNTWEEGQADCGRKGATLLLIQDQEELRFLLDSIKEKYNSFWIGLRFTLPDMNWKWINGTTFNSDVLKITGVTENGSCASILGDKVTPESCASDNRWICQKELNHETPSNDSGT
Gal6S(b1-4)Glc6S
  glycan array binding signal (z-score): -0.29
Gal6S(b1-4)GlcNAc
  glycan array binding signal (z-score): -0.271
Gal6S(b1-4)GlcNAc6S
  glycan array binding signal (z-score): -0.239
GalNAc(a1-3)Gal
  glycan array binding signal (z-score): 0.263
GalNAc(a1-3)GalNAc
  glycan array binding signal (z-score): -0.315
[1]
  glycan array binding signal (z-score): -0.341
[2]
  glycan array binding signal (z-score): -0.327
[3]
  glycan array binding signal (z-score): -0.343
GalNAc(b1-3)Gal
  glycan array binding signal (z-score): -0.37
[4]
  glycan array binding signal (z-score): -0.121
[5]
  glycan array binding signal (z-score): -0.385
[6]
  glycan array binding signal (z-score): -0.333
GalNAc(b1-3)GalNAc
  glycan array binding signal (z-score): -0.344
GalNAc(b1-3)GlcNAc
  glycan array binding signal (z-score): -0.346
GalNAc(b1-4)Gal(b1-4)Glc
  glycan array binding signal (z-score): -0.328
GalNAc(b1-4)GlcNAc
  glycan array binding signal (z-score): 3.37
[7]
  glycan array binding signal (z-score): 5.67
[8]
  glycan array binding signal (z-score): 2.63
[9]
  glycan array binding signal (z-score): 2.89
GalNAc(b1-4)GlcNAc6S
  glycan array binding signal (z-score): 2.51
GalNAc(b1-6)GalNAc
  glycan array binding signal (z-score): 0.458
GalNAc3S(b1-4)GlcNAc
  glycan array binding signal (z-score): 0.586
GalNAc3S(b1-4)GlcNAc3S
  glycan array binding signal (z-score): -0.377
[10]
  glycan array binding signal (z-score): -0.38
GalNAc4S6S(b1-4)GlcNAc
  glycan array binding signal (z-score): -0.357
GalNAc6S(b1-4)GlcNAc
  glycan array binding signal (z-score): 4.94
Glc(a1-4)Glc
  glycan array binding signal (z-score): -0.326
[11]
  glycan array binding signal (z-score): -0.34
Glc(a1-6)Glc(a1-6)Glc
  glycan array binding signal (z-score): -0.31
[12]
  glycan array binding signal (z-score): -0.305
Glc(b1-4)Glc
  glycan array binding signal (z-score): -0.281
Glc(b1-6)Glc
  glycan array binding signal (z-score): -0.369
GlcA(b1-3)Gal
  glycan array binding signal (z-score): -0.283
GlcA(b1-3)GlcNAc
  glycan array binding signal (z-score): -0.374
GlcA(b1-6)Gal
  glycan array binding signal (z-score): -0.335
[13]
  glycan array binding signal (z-score): -0.356
[14]
  glycan array binding signal (z-score): -0.224
[15]
  glycan array binding signal (z-score): 3.83
[16]
  glycan array binding signal (z-score): 1.3
[17]
  glycan array binding signal (z-score): 1.02
[18]
  glycan array binding signal (z-score): 2.75
[19]
  glycan array binding signal (z-score): 2.08
[20]
  glycan array binding signal (z-score): 2.07
[21]
  glycan array binding signal (z-score): 4.1
[22]
  glycan array binding signal (z-score): 1.22
